# According to ChEMBL document CHEMBL1961873, “Compounds: GSK PKIS; Assays: Nanosyn kinase panel” (2012):
# For some assays here: What follows is the remainder of the data, with few or none of the strong results. The entries are a selection whose mix differs from that of the whole data set.
# Experiments:
# [1] = biological target: T1, Serine/threonine-protein kinase MARK2 (Homo sapiens) (UniProt Q7KZI7); settings: at 1 µM
# T1 sequence (whole entry): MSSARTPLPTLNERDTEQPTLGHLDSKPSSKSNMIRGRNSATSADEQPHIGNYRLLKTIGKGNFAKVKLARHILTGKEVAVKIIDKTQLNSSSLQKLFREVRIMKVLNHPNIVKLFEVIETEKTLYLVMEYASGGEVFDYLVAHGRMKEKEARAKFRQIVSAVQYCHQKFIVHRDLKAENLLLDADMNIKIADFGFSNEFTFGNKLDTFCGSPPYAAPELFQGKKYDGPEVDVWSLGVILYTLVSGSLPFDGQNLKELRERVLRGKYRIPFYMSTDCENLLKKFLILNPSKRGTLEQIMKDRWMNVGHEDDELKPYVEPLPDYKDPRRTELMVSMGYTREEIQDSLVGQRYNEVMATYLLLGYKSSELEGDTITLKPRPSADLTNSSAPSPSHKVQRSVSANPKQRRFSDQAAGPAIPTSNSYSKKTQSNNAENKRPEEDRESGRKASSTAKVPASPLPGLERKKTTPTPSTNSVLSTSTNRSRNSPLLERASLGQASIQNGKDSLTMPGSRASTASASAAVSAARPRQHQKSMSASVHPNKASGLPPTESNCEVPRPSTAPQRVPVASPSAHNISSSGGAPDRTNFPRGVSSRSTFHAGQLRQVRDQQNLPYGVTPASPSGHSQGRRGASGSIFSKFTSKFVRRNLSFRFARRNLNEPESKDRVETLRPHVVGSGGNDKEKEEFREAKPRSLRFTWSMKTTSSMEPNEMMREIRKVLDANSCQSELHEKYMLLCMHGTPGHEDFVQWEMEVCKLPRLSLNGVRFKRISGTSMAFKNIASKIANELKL
# [2] = biological target: PAS domain-containing serine/threonine-protein kinase (Homo sapiens) (UniProt Q96RG2); settings: at 0.1 µM
# [3] = biological target: PAS domain-containing serine/threonine-protein kinase (Homo sapiens) (UniProt Q96RG2); settings: at 1 µM
# [4] = biological target: Phosphorylase b kinase gamma catalytic chain, skeletal muscle/heart isoform (Homo sapiens) (UniProt Q16816); settings: at 0.1 µM
# [5] = biological target: Phosphorylase b kinase gamma catalytic chain, skeletal muscle/heart isoform (Homo sapiens) (UniProt Q16816); settings: at 1 µM
# [6] = biological target: T2, Phosphorylase b kinase gamma catalytic chain, liver/testis isoform (Homo sapiens) (UniProt P15735); settings: at 0.1 µM
# T2 sequence (whole entry): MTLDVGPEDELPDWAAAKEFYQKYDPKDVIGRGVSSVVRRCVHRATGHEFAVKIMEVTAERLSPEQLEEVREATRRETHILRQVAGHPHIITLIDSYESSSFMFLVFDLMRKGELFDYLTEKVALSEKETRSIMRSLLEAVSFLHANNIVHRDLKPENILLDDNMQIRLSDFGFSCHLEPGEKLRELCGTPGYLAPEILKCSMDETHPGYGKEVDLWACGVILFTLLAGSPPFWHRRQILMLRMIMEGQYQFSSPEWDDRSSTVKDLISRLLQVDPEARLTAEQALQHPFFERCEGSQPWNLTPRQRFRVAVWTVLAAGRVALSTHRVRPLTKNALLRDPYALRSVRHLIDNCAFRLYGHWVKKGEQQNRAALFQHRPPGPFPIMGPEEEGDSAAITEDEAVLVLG
# [7] = biological target: T2, Phosphorylase b kinase gamma catalytic chain, liver/testis isoform (Homo sapiens); settings: at 1 µM
# [8] = biological target: Serine/threonine-protein kinase pim-1 (Homo sapiens) (UniProt P11309); settings: at 0.1 µM
# [9] = biological target: Serine/threonine-protein kinase pim-1 (Homo sapiens) (UniProt P11309); settings: at 1 µM
# [10] = biological target: Serine/threonine-protein kinase pim-2 (Homo sapiens) (UniProt Q9P1W9); settings: at 0.1 µM
# [11] = biological target: Serine/threonine-protein kinase pim-2 (Homo sapiens) (UniProt Q9P1W9); settings: at 1 µM
# [12] = biological target: Serine/threonine-protein kinase pim-3 (Homo sapiens) (UniProt Q86V86); settings: at 0.1 µM
# [13] = biological target: Serine/threonine-protein kinase pim-3 (Homo sapiens) (UniProt Q86V86); settings: at 1 µM
# [14] = biological target: T3, MAP kinase-activated protein kinase 5 (Homo sapiens) (UniProt Q8IW41); settings: at 0.1 µM
# T3 sequence (whole entry): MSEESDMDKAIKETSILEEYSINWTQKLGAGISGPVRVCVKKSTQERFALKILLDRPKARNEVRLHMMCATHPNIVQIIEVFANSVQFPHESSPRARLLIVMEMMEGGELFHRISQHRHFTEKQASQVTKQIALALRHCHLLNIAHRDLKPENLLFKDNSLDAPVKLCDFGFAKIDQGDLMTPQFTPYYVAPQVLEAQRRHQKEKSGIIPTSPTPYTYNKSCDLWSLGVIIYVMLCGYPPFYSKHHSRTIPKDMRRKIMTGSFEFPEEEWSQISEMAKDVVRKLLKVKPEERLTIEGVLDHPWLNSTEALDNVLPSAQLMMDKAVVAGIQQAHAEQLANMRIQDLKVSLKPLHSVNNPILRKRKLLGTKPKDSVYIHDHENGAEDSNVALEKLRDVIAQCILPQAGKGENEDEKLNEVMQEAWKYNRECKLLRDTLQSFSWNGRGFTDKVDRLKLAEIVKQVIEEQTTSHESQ
# [15] = biological target: T3, MAP kinase-activated protein kinase 5 (Homo sapiens); settings: at 1 µM
# [16] = biological target: Serine/threonine-protein kinase SIK1 (Homo sapiens) (UniProt P57059); settings: at 0.1 µM
# [17] = biological target: Serine/threonine-protein kinase SIK1 (Homo sapiens) (UniProt P57059); settings: at 1 µM
# [18] = biological target: Serine/threonine-protein kinase SIK2 (Homo sapiens) (UniProt Q9H0K1); settings: at 0.1 µM
# [19] = biological target: Serine/threonine-protein kinase SIK2 (Homo sapiens) (UniProt Q9H0K1); settings: at 1 µM
# [20] = biological target: T4, Serine/threonine-protein kinase TBK1 (Homo sapiens) (UniProt Q9UHD2); settings: at 0.1 µM;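 also: values are the mean TBK1 inhibition, taken from the GSK PKIS screening data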
# T4 sequence (whole entry): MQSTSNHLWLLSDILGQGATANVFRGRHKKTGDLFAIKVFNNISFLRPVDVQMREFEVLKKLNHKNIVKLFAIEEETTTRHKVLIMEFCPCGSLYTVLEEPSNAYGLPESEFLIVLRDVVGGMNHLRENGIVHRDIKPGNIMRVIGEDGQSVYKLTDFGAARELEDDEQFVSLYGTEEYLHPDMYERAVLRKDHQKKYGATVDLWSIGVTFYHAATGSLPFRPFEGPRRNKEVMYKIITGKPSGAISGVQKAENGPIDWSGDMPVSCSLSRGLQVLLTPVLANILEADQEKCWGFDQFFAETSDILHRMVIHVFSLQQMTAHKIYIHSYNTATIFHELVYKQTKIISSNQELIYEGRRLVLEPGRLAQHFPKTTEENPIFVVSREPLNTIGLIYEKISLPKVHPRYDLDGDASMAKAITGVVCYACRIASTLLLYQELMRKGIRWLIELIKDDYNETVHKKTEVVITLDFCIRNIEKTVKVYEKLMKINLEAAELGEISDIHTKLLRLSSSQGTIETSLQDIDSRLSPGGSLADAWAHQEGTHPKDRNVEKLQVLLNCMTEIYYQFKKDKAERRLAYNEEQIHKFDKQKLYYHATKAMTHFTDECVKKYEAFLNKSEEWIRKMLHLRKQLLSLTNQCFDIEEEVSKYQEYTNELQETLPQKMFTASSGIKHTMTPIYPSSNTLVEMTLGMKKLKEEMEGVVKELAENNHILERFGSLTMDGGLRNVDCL
# Chain of UniProt P11309 (P11309 whole entry, looked up): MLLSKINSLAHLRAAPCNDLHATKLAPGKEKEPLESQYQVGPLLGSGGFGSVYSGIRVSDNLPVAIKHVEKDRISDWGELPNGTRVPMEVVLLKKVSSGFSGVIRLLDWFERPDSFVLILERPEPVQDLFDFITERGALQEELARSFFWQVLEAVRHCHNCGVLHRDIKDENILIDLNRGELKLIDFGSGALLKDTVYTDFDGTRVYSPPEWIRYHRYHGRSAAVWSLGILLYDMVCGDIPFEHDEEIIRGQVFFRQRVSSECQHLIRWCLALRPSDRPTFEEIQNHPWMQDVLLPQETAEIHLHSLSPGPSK
# Chain of UniProt P57059 (P57059 whole entry): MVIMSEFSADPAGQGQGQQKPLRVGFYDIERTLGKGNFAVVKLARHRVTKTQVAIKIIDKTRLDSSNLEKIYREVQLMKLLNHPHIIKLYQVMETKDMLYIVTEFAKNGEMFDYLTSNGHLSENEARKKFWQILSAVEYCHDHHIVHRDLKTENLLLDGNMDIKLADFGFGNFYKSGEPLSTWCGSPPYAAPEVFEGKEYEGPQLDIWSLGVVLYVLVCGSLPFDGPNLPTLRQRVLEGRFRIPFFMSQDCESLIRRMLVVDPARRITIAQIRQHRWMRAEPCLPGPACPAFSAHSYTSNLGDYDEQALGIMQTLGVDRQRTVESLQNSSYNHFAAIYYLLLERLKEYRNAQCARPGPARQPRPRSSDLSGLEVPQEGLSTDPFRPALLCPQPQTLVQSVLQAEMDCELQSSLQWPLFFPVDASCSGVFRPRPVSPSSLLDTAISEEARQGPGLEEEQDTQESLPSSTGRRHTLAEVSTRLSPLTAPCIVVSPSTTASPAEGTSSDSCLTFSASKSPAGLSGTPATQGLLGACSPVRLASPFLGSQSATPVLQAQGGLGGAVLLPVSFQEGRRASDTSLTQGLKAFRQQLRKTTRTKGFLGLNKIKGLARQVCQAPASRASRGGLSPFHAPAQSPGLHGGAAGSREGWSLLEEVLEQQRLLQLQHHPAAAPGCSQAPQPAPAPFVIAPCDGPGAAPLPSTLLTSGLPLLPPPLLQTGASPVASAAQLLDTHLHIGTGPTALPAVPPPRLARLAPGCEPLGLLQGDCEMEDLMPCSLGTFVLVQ
# Chain of UniProt Q96RG2 (Q96RG2 whole entry, the tested form may be a part, canonical isoform): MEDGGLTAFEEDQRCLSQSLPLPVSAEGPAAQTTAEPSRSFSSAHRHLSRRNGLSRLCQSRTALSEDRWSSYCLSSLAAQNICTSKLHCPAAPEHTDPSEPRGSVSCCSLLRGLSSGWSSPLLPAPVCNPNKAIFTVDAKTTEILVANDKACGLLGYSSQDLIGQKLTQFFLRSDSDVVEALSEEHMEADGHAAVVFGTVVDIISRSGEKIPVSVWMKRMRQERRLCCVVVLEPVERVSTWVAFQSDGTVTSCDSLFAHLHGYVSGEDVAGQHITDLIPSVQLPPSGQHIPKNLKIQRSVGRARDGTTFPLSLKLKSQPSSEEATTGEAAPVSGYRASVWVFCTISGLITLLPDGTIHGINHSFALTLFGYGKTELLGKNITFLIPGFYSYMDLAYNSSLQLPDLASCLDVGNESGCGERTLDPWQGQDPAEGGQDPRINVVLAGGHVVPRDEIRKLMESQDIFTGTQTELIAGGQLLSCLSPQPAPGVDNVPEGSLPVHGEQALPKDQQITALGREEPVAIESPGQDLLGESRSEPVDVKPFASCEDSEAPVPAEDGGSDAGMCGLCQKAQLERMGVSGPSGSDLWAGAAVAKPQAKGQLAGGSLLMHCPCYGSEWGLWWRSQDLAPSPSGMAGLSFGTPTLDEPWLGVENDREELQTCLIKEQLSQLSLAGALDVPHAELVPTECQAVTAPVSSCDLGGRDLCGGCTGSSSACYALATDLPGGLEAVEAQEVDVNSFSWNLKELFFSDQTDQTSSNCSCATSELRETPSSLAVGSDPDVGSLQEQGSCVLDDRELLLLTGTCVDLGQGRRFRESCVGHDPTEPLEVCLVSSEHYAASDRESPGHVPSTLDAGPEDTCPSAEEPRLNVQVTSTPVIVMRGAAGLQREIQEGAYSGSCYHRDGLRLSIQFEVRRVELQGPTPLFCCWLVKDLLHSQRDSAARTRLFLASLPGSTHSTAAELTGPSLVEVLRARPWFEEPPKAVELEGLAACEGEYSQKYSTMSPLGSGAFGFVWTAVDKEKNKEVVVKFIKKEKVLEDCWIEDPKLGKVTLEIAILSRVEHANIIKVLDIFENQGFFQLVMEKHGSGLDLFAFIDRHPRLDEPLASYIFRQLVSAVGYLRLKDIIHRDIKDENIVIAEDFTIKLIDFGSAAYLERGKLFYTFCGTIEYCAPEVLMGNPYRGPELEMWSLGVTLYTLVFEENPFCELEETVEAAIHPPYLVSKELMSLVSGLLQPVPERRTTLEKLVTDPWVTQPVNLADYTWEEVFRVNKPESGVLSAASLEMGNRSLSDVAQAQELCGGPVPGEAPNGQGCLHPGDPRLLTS
# Chain of UniProt Q16816 (Q16816 whole entry, looked up, canonical isoform): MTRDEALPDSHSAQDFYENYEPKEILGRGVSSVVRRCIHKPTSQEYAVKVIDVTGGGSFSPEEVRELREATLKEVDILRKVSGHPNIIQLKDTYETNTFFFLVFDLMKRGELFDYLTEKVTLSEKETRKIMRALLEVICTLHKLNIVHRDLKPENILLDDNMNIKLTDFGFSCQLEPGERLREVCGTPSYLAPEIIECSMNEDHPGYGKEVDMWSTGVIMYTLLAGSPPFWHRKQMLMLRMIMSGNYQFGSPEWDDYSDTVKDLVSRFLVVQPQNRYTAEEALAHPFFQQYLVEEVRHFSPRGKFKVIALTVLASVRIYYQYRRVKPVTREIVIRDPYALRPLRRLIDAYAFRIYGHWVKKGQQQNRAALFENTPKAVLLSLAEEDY
# Chain of UniProt Q9H0K1 (Q9H0K1 whole entry, looked up): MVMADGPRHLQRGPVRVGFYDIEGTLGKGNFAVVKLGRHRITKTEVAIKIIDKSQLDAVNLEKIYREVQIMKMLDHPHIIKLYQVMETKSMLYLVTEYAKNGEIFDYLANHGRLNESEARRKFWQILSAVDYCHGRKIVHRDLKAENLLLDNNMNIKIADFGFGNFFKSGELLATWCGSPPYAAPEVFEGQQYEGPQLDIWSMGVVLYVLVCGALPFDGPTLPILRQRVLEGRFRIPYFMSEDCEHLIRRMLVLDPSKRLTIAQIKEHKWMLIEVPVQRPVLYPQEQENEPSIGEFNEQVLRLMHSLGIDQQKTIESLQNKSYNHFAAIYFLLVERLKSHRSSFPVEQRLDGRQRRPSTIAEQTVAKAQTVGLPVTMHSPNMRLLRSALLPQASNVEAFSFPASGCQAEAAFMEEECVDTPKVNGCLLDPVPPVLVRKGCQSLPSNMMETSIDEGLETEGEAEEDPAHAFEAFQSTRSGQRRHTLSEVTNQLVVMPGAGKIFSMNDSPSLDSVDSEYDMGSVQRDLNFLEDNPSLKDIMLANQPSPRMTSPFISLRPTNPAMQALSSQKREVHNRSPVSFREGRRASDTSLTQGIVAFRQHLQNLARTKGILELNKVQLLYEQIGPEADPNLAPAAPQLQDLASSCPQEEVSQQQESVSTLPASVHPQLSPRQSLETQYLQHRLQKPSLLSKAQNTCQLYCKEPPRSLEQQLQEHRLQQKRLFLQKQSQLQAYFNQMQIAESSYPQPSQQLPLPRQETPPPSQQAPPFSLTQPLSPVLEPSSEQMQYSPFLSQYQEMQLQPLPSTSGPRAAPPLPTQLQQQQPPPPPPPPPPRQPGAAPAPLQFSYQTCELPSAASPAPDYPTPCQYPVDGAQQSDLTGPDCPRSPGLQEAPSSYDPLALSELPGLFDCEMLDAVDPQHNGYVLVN
# Chain of UniProt Q9P1W9 (Q9P1W9 whole entry, looked up): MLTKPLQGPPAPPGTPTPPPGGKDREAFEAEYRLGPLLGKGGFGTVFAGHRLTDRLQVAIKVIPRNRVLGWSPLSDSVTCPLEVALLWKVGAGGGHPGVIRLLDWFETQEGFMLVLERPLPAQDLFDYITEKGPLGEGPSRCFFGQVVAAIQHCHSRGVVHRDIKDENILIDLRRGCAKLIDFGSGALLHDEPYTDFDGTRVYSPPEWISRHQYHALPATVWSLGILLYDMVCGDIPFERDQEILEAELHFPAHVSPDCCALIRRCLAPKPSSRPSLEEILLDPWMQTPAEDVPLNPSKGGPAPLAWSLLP
SMILES,inhibition [1] [%],inhibition [2] [%],inhibition [3] [%],inhibition [4] [%],inhibition [5] [%],inhibition [6] [%],inhibition [7] [%],inhibition [8] [%],inhibition [9] [%],inhibition [10] [%],inhibition [11] [%],inhibition [12] [%],inhibition [13] [%],inhibition [14] [%],inhibition [15] [%],inhibition [16] [%],inhibition [17] [%],inhibition [18] [%],inhibition [19] [%],inhibition [20] [%]
COc1ccccc1C1=C(Nc2ccccc2)C(=O)NC1=O,13.3,0.75,0.53,2.69,8.01,5.15,4.8,0.56,1.26,-0.65,0.14,-0.2,1.17,0.91,1.14,8.64,18.2,7.72,27.8,2.56
O=C1NC(=O)C(c2ccccc2)=C1Nc1ccccc1,3.58,0.23,1.08,5.83,7.96,6.24,7.75,1.66,3.1,3.49,6.61,4.19,9.78,2.24,2.98,7.22,13.4,8.29,13.6,2.92
O=C1NC(=O)C(c2cccc([N+](=O)[O-])c2)=C1Nc1cc(Cl)c(O)c(Cl)c1,6.07,0.71,1.32,4.22,4.24,3.23,2.81,-0.22,1.59,0.69,1.61,-0.07,0.87,0.57,0.55,0.44,3.71,-0.86,5.17,7.31
Fc1ccc(Oc2nccc(-c3c(-c4ccc(F)cc4)ncn3C3CCNCC3)n2)cc1,1.71,-2.4,-1.41,1.33,3.72,5.4,5.05,-0.75,-0.29,-4.34,-4.57,-0.79,0.31,2.6,2.88,4,10.3,1.1,8.54,5.6
Fc1ccc(-c2ncn(C3CCNCC3)c2-c2ccnc(Oc3ccc(Cl)cc3)n2)cc1,2.28,–,0.41,4.08,4.85,-2.35,-2.67,0.09,1.92,0.62,1.13,0.92,1.65,0.49,0.27,2.71,7.66,-0.28,-0.03,-0.4
COc1ccccc1Oc1nccc(-c2c(-c3ccc(F)cc3)ncn2C2CCNCC2)n1,4.49,0.89,0.84,6.35,10.1,4.53,5.85,0.49,1.74,0.39,0.22,0.3,0.98,2.17,2.36,2.31,9,4.38,13.6,3.06
NC(=O)CCc1ccccc1Oc1nccc(-c2c(-c3ccc(F)cc3)ncn2C2CCNCC2)n1,1.87,0.54,-0.3,1.98,4.11,-2.36,-4.51,-0.02,1.75,-0.27,0.12,0.62,1.86,-0.4,-0.44,-2.99,–,-8.81,-5.47,2.53
Cc1cccc(Oc2nccc(-c3c(-c4ccc(F)cc4)ncn3C3CCNCC3)n2)c1C,3.51,0.32,0.29,6.63,7.78,5.29,5.11,-0.71,1.66,-0.07,0.06,-0.86,0.15,1.27,1.32,0.93,9.26,7.26,12.6,1.51
CC(C)(C)c1ccc(Oc2nccc(-c3c(-c4ccc(F)cc4)ncn3C3CCNCC3)n2)cc1,0.66,0.2,0.03,4.06,7.23,3.19,3.37,0.98,2.2,0.14,0.77,0.02,1.23,1.26,0.81,5.1,8.61,6.78,15.9,1.92
CS(=O)(=O)c1ccc(Oc2nccc(-c3c(-c4ccc(F)cc4)ncn3C3CCNCC3)n2)cc1,-1.37,-0.46,0.12,6.04,4.61,4.27,4,0.75,1.73,0.42,0.6,0.09,-0.2,1.47,1.7,3.17,6.69,1.55,4.8,0.81
Fc1ccc(-c2ncn(C3CCNCC3)c2-c2ccnc(Oc3cccc(F)c3)n2)cc1,4.61,0,0.05,3.42,7.42,5.51,5.22,1.22,2.85,-0.15,-0.55,0.23,2.96,2.07,2.21,2.7,12,4.38,10.9,3.75
O=C(O)c1ccc(Oc2nccc(-c3c(-c4ccc(F)cc4)ncn3C3CCNCC3)n2)cc1,4.16,-2.47,-1.26,0.98,3.36,5.58,4.12,1.46,2.36,-0.61,-0.48,0.4,1.76,3.09,1.69,2.57,12.6,0.04,8.52,4.78
Fc1ccc(-c2ncn(C3CCNCC3)c2-c2ccnc(Oc3cccc(C(F)(F)F)c3)n2)cc1,1.08,-0.12,0.95,7.66,7.21,8.37,7.18,-0.31,1.39,0.19,0.36,0.35,1.37,2.24,2.15,5.71,10.1,4.99,9.11,4.6
O=C1NC(=O)C(c2ccccc2Cl)=C1Nc1cc(Cl)c(O)c(Cl)c1,0.24,-0.25,1.3,-0.47,3.29,3.06,6.84,1.02,1.2,-0.59,0.46,0.36,3.53,2.09,2.74,3.99,5.76,6.42,-0.37,0.38
